Hit rate of the full screen: of about 150,000 compounds, about 540 (0.36%) showed an effect of 50% or more. This is one part of the list.
tested on: Plasmodium falciparum; assay: Primary screen in NF54 nanoGlo assay, in single point, at 2uM, 72h; a lower Z score goes with more inhibition; type: functional, Erythrocyte; conditions: timepoint 72 hour

SMILES	% Inhibition [%]	Z score
CN(C)CCNC(=O)c1cccn1-c1nnc(N2CCCCCC2)s1	-6	0.73
C[C@H]1CCCCN1C(=O)c1ccc(NCc2ncnn2C)cc1Cl	-24	3.44
CC(C)c1ccc(C(=O)N2CCC3(CCCN(C)[C@@H]3C(=O)N(C)C)CC2)cc1	-11	2.04
COC(=O)N1CCc2ccc(F)cc2[C@@H]1C(=O)Nc1cccc(C(C)=O)c1	-7	1.27
O=c1n(Cc2ccccc2)c2ccncc2n1Cc1ccc(CO)cc1	-11	1.29
C[C@H](OC1CCCCCC1)C(=O)Nc1nc(-c2cnn(C)c2)cs1	0	0.02
N#Cc1nc(C2CC2)oc1N1CCN(C(=O)CCc2ccco2)CC1	-7	1.41
CN(C(=O)OCC1CCCCC1)c1ccn(C)n1	4	-0.5
Cn1nc(C(=O)Nc2cccc3c2OCCCO3)cc1C(F)F	-7	1.12
O=C(C[C@@H]1C[C@H]2O[C@H](CNC(=O)Nc3cccs3)[C@@H](O)[C@H]2O1)NCc1ccc(F)cc1	-11	1.94
CN(C)S(=O)(=O)c1ccsc1C(=O)N1CC(C2CC2)C1C1CC1 (stereo not drawn)	-8	0.9
O=C(Cc1noc(CCCC2CC2)n1)Nc1ccc2c(c1)OCCO2	-10	1.33
CC(C)NC(=O)[C@@H](NS(=O)(=O)c1ccccc1F)C(C)C	-3	0.38
CC1(C(=O)N[C@H]2CCN(c3cc(N4CCOCC4)cnn3)C2)CCCCC1	-5	0.7
O=C(NC[C@H]1CCCCN(C(=O)C2CC=CC2)C1)C1CC=CC1	-6	1.12
CCOCC(O)CN(Cc1ccc(F)cc1)CC1CC(c2ccccc2)=NO1 (stereo not drawn)	-9	0.84
Cc1cccc2c1OCC[C@@H]2NC(=O)NCc1cscn1	-3	0.46
CC(C)Oc1ccccc1CN1CCC[C@](C)(COc2ccncc2)C1	2	-0.23
O=C(NCc1ccco1)c1csc(-c2ccnc(N3CCOCC3)c2)n1	0	0
CCCCc1nnc(NCc2snc(OC)c2Br)o1	-10	1.06
O=C(N[C@H]1C[C@H](c2cc(N3CCCC3)ncn2)C1)c1cc(CO)ccn1	-15	2.89
C[C@H](Nc1ccc(Oc2ccccc2C#N)c(F)c1)c1nnnn1C	0	-0.03
COc1cncc(CCC(=O)NCCC(C)(C)C2CC2)c1	-8	1.54
Cc1nc(N)sc1C(=O)NCCc1cnn(C)c1	-11	1.92
O=C(O)CC[C@@H]1CN(Cc2ccc(Cl)cc2)CC[C@@H]1N1CCCC1	6	-0.7
CCC(CC)C(=O)NCCc1ccc(OC)cc1	0	-0.05
COc1ccc(S(=O)(=O)NCc2cc(C)ncn2)cc1	8	-0.99

SMILES	% Inhibition [%]	Z score
Cc1cnc(Cn2ccc3ccn(Cc4ccccc4F)c3c2=O)o1	-2	0.42
NC(=O)c1cncc(N2CCC(c3[nH]ncc3Cc3ccccc3)CC2)n1	-5	0.64
Cc1ccnc2ccc(C(=O)N[C@H]3CCc4nnnn4CC3)cc12	9	-1.39
C=CCNc1nc(CC)nc2c1CCN(C(=O)c1cn(C)nc1C)CC2	-12	2.14
CN(C)S(=O)(=O)NCCOc1ccc(F)cc1	2	-0.22
O=C(CCc1ccccc1)N1CCC[C@H](c2nnc3n2CCN(C2CCCC2)C3)C1	-10	1.84
CCOc1ncccc1C(=O)N(Cc1ccncc1)C1CCN(C)CC1	-3	0.4
Cc1ccccc1OCCCNC(=O)c1c(C)c(C)n[nH]c1=O	-7	0.59
Cc1ccc(CC(=O)N(CC(F)(F)F)C(C)C)cn1	-1	0.2
COCCN1CCN2C(=O)[C@H](Cc3ccccc3)N(C(=O)Cn3ccc(C)n3)C[C@H]2C1=O	-5	0.42
Cc1ccc(Br)c(C(=O)Nc2nccc(C)c2C2CC2)n1	-8	1.43
COc1ccc2cc(C(=O)N3C[C@H]4C[C@H](O)[C@@H](O)C[C@H]4C3)n(C)c2c1	-14	2.2
COc1ccccc1CNC(=O)C1CC2CCC1C2 (stereo not drawn)	-12	1.1
COc1ccc(-n2cccn2)cc1S(=O)(=O)N1CCN(C)C(=O)[C@@H]1C	-11	1.07
COc1ccccc1COC1CCN(Cc2ccc(C#N)o2)CC1	-1	0.11
Cc1ccc(CN2CCN(CC(=O)Nc3cc(C)on3)C(=O)C2=O)cc1	0	-0.03
COC[C@H]1[C@H](NS(=O)(=O)Cc2cc(F)ccc2Cl)[C@H]2CCO[C@H]21	-2	0.34
CCOc1ccc(-n2nnc(-c3nc(C)c(C(=O)N(C)Cc4ccccc4)s3)c2C)cc1	-18	1.66
COC(=O)c1cc(C(=O)N[C@@]2(C)CCc3ccccc3C2)ccn1	-14	1.95
COc1ccc(-c2nccn2CCN2CCCC[C@@H]2CO)c(C)c1C	-11	1.22
N#Cc1ccccc1-c1ccccc1C(=O)N1CCOCC1	-1	0.1
O=C(O)[C@]12CCCN[C@@H]1CCN(Cc1ccccc1OC(F)(F)F)C2	-21	2.63
Cc1cc(C(=O)N[C@H]2CCc3nnc(C4CC4)n3CC2)c(C)n1Cc1ccco1	-6	1.17
CC[C@H](C)NC(=O)C(=O)Nc1ccc(Cl)cc1	6	-0.85
COc1ccc(-c2nc3cc(F)ccc3cc2CN(C(=O)CCc2ccccc2OC)C2CC2)cc1	0	0.01
O=C1COc2cccc(C(=O)N3CC[C@@H]4CC[C@@]43c3cccnc3)c2N1	7	-0.74
Cn1c(CO)nnc1[C@H]1C[C@@H](NC(=O)CCNC(=O)c2ccc(F)cc2)C1	-11	2
